Out of some 270,000 compounds screened, about 5,800 (2.1%) were called active. The shares of active, inactive and inconclusive entries below differ from those in the screen. The call rests on the fitted dose curve; in most records, active means well fitted inhibition curve with a large enough effect; inconclusive means small, poorly fitted or top-dose-only effect; inactive means flat fitted curve, though single readings scatter. Potencies beside an inconclusive call are fits to weak or partial responses and may not hold up.
molecular target: Microtubule-associated protein tau (Homo sapiens) (UniProt P10636); experiment: qHTS for Inhibitors of Tau Fibril Formation, Thioflavin T Binding; conditions: recombinant tau K18 P301L (four-repeat tau fragment), heparin-induced fibrillization, ThT fluorescence; series mostly up to 57.4 µM; activity, negative = inhibition: at the top concentration; further: nearly all actives have a fitted effect of over 55% in size
Summary of the method: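 In this qHTS, human K18 P301L tau is incubated with compound and heparin for 6 hr at 37 C, and Thioflavin T fluorescence then reports fibril load.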
On the % scale 0 is the no-effect control and ±100 the full control effect; potency means the concentration at half of the fitted maximal effect; tags describe the fitted curve by direction and shape.

Chain of UniProt P10636 (P10636 whole entry, looked up, the tested form may be a part): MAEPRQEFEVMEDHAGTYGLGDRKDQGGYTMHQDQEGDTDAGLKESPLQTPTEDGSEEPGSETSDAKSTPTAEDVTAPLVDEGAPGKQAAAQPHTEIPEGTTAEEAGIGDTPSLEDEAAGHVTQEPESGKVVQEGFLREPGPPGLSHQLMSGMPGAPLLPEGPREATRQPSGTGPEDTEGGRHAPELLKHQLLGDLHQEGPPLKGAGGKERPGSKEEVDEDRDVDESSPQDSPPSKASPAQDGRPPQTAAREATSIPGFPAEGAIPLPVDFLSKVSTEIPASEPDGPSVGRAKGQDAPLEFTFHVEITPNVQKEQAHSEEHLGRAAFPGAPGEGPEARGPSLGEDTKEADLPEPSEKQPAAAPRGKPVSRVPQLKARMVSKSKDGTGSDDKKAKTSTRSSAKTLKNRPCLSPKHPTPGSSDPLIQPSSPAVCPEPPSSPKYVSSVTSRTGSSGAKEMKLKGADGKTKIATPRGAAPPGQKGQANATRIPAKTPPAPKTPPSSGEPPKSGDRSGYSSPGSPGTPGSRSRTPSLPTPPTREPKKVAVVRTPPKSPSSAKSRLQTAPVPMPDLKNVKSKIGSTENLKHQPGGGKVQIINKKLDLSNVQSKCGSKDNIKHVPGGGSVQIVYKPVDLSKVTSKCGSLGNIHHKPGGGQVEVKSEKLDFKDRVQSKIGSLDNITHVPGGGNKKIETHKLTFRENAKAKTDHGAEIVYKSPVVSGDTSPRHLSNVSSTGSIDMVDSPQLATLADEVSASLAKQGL

Row | SMILES | activity, negative = inhibition | Potency
1 | COc1ccc(CNC(=O)c2ccc[nH]2)cc1 | inactive: 3.62% | –
2 | CCC(=O)O[C@H]1C(O[C@@H]2C(C)[C@H](O[C@H]3C[C@@](C)(OC)C(O)C(C)O3)C(C)C(=O)OC(CC)[C@@](C)(O)C(O)[C@H](C)C(=O)C(C)C[C@]2(C)O)OC(C)CC1N(C)C (stereo not given in full) | – | inconclusive: 12.6 µM [inhibitor, partial curve]
3 | Cc1c(-c2nsc(NC(=O)c3cccs3)n2)nnn1-c1ccc(Br)cc1 | – | inconclusive: 1 µM [inhibitor, full curve, poor fit]
4 | N#CC1=C(N)Oc2n[nH]c(-c3ccccc3)c2C12C(=O)Nc1ccccc12 (stereo not given) | inactive: -8.26% | –
5 | C=CCOc1ccc(/C=C2\SC(=S)N(C(C(=O)O)c3ccccc3)C2=O)cc1 (stereo not given) | – | active: 22.4 µM
6 | COc1cccc(-c2csc(NC(C)=O)n2)c1 | inactive: -11.7% | –
7 | O=C(CCc1nc2ccccc2c(=O)[nH]1)OCC(=O)N1CCc2ccccc21 | – | inconclusive: 11.2 µM [inhibitor, partial curve]
8 | NC(=O)c1ccc(NCc2ccco2)c([N+](=O)[O-])c1 | – | inconclusive: 15.8 µM [inhibitor, single point]
9 | Cc1ccc(/C=C2\SC(=S)N(CCCC(=O)Nc3ccccn3)C2=O)cc1 | – | inconclusive: 14.1 µM [inhibitor, partial curve]
10 | CSC1=NSC2=NC(=O)/C(=C\c3coc4ccccc4c3=O)C(=N)N12 | – | active: 14.1 µM
11 | Cc1nc2scc(-c3cccs3)c2c(=O)n1CC(=O)O | inactive: -3.63% | –
12 | CCC1CN(C(=O)Nc2cc(C)cc(C)c2)c2ccccc2O1 (stereo not given) | inactive: -9.42% | –
13 | COc1cc(NC(=O)c2ccccc2NS(=O)(=O)c2ccc(Cl)s2)cc(OC)c1 | – | inconclusive: 28.2 µM [inhibitor, partial curve]
14 | Cn1c(=O)c([N+](=O)[O-])c(NCc2ccc3c(c2)OCO3)c2ccccc21 | inactive: -12.6% | –
15 | C=CCn1c(COc2ccccc2-c2ccccc2)nnc1SCC(=O)NC(=O)NCc1ccco1 | – | inconclusive: 22.4 µM [inhibitor, partial curve, poor fit]
16 | CN1C(C(=O)NCc2cccc(Br)c2)CC2Cn3c(nc4cc(Cl)c(Cl)cc43)C21 (stereo not given) | – | inconclusive: 39.8 µM [inhibitor, single point]
17 | O=C(COc1ccccc1-c1nc(-c2ccccc2)no1)Nc1ccccc1[N+](=O)[O-] | inactive: -16.9% | –
18 | NCCCCCc1cnc[nH]1 | inactive: -3.69% | –
19 | CCOC(=O)c1c(C)c(C(=O)NC(C)COC)c(C)n1C (stereo not given) | inactive: 7.66% | –
20 | O=C1CC(c2ccccc2Cl)=NN(c2ncnc3ccccc23)C1=O | – | inconclusive: 14.1 µM [inhibitor, partial curve]
21 | Cc1cc(C)cc(OCC(=O)NCC2(N(C)C)CCCCC2)c1 | inactive: 6.08% | –
22 | COCCCn1c(SCc2ccccc2)nc2cc(OC)c(OC)cc2c1=N | – | inconclusive: 12.6 µM [inhibitor, partial curve, poor fit]
23 | COc1ccc(S(=O)(=O)NCc2c(-c3ccccc3)noc2C)c(OC)c1 | inactive: 4.46% | –

Row | SMILES | activity, negative = inhibition | Potency
24 | CN(C)c1ccc(/C=N/NC(=O)c2sccc2-n2cccc2)cc1 | – | inconclusive: 17.8 µM [inhibitor, partial curve]
25 | CCOC(=O)C1=C(CS(=O)(=O)c2ccc(F)cc2)NC(=O)NC1c1ccc(OCC)c(OC)c1 (stereo not given) | – | inconclusive: 5.62 µM [inhibitor, single point]
26 | CCCOc1cccc(-c2cc(-c3n[nH]c(=S)n3CC)c3ccccc3n2)c1 | inactive: -8.53% | –
27 | O=C(Nc1ccc(N2CCOCC2)c(S(=O)(=O)Nc2ccc(Cl)cc2)c1)c1cnccn1 | – | inconclusive: 39.8 µM [inhibitor, single point]
28 | C=CCNc1nc(Cl)nc(Nc2ccc([N+](=O)[O-])cc2)n1 | inactive: -2.12% | –
29 | O=C(CSc1ccsc1[N+](=O)[O-])N1CCCCC1 | – | inconclusive: 17.8 µM [inhibitor, partial curve]
30 | COc1ncnc2sc(-c3ccccc3)cc12 | inactive: -6.84% | –
31 | CCCc1nc2ccccc2n2c(-c3cccc(C)c3)c3c(=O)n(C)c(=O)n(C)c3c12 | – | inconclusive: 12.6 µM [inhibitor, partial curve]
32 | Cc1ccc([C@H]2C(C#N)=C(N)Oc3cc(C)oc(=O)c32)o1 | – | inconclusive: 14.1 µM [inhibitor, partial curve]
33 | Cc1ccc(OCC(=O)Nc2nnc(C3CCCO3)s2)c(Br)c1 (stereo not given) | – | inconclusive: 11.2 µM [inhibitor, partial curve]
34 | Cn1c(SCC(=O)NCc2cccs2)nnc1-c1ccco1 | inactive: 1.31% | –
35 | O=C(O)C[C@@H]1C(=O)O[C@@H]2C(COC(=O)c3cc(O)c(O)c(O)c3)O[C@@H](OC(=O)c3cc(O)c(O)c(O)c3)[C@@H](OC(=O)c3cc(O)c(O)c4c3[C@H]1[C@H](O)C(=O)O4)[C@H]2OC(=O)c1cc(O)c(O)c(O)c1 (stereo not given in full) | – | inconclusive: 15.8 µM [inhibitor, partial curve]
36 | CCOC(=O)C(C(=O)OCC)C(C(=O)OCC)N1CCOCC1 (stereo not given) | – | inconclusive: 39.8 µM [inhibitor, single point]
37 | CC(=O)Nc1ccc(C2Nc3c(C)cc(C)cc3-c3cc(C)nn32)cc1 (stereo not given) | inactive: -12.8% | –
38 | Cc1nccc(-c2cccc(NC(=O)Nc3ccc(Cl)cc3)c2)n1 | inactive: -5.2% | –
39 | O=C(CNC(=O)c1ccccc1)OCc1nnc(-c2ccc(Cl)cc2)o1 | inactive: -16.2% | –
40 | COC(=O)c1sc(C(F)(F)F)c(-c2ccccc2)c1S(=O)(=O)NC(C)(C)C | – | inconclusive: 5.01 µM [inhibitor, single point]
41 | Cc1nn(C(C)(C)C)c(OC(=O)C(C)(C)C)c1Sc1ccccc1 | inactive: -9.63% | –
42 | CCn1ccnc1CN(C)Cc1cn[nH]c1-c1ccc(F)cc1F | inactive: -2.39% | –
43 | Cc1ccc(C)c(NC(=S)NNC(=O)c2ccc(Br)o2)c1 | – | inconclusive: 0.1 µM [inhibitor, full curve, poor fit]
44 | CN(C)S(=O)(=O)c1ccc(C(=O)NNc2nc(-c3ccccc3)c3cc(Br)ccc3n2)cc1 | inactive: -8.33% | –
45 | C#CCOCCOCCOCCNc1nc(N2CCN(C(=O)[C@H](Cc3ccc(O)cc3)n3cc([C@@H](N)C(C)CC)nn3)CC2)nc(N2CCN(C(=O)[C@H](Cc3cc4ccccc4[nH]3)n3cc([C@@H](N)CC(C)C)nn3)CC2)n1 (stereo not given in full) | – | inconclusive: 20 µM [inhibitor, single point]

From PubChem BioAssay AID1460 (National Center for Advancing Translational Sciences (NCATS), 2008)
